These are yes or no findings as the source states them, for the method shown. For some of these results: In cells and extracts the contact can be indirect. Some entries that bind do so weakly or less than the wild type. For some of these results: Sequences can lack the tags named with a protein.
What was measured:
[1] = target: T1, GST-Cep57 (195–500 amino acids) (human) (UniProt Q86XR8); test: pull-down; GST-tagged Cep57 fragments on Glutathione Sepharose 4B beads incubated with lysates of HEK293T cells overexpressing the partner, 4 h at 4 °C; western blotting; only the target purified
T1 sequence: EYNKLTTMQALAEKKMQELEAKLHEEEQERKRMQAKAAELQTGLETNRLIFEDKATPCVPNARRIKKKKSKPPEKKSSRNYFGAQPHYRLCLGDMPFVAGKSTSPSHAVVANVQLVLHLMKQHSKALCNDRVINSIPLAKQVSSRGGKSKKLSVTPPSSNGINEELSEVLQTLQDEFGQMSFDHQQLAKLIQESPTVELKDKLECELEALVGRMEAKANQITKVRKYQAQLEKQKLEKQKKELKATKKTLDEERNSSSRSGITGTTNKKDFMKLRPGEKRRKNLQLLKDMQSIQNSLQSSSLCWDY

[2] = target: T2, Flag-Mad1 (176–350 amino acids) (human) (UniProt Q9Y6D9); test: co-IP; lysates of co-transfected HEK293T cells (150 mM NaCl, 1 mM MgCl2, 50 mM Hepes pH 7.4, 1 mM EGTA, 0.5% Triton X-100); antibody 4 h at 4 °C, protein A-Sepharose 2 h; western blotting
T2 sequence: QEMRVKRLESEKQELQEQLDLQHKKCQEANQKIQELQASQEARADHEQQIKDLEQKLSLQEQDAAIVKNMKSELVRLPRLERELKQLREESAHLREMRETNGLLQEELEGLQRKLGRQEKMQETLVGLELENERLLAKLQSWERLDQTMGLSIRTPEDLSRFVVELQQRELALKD

[3] = target: T3, Flag-Mad1 (1–175 amino acids) (human) (UniProt Q9Y6D9); test: as above
T3 sequence: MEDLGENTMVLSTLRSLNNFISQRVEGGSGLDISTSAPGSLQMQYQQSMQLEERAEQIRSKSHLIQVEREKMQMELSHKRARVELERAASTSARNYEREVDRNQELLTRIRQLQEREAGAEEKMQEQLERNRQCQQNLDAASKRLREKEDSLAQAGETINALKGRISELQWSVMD

[4] = target: T4, Flag-Mad1 (1–530 amino acids) (human) (UniProt Q9Y6D9); test: as above
T4 sequence: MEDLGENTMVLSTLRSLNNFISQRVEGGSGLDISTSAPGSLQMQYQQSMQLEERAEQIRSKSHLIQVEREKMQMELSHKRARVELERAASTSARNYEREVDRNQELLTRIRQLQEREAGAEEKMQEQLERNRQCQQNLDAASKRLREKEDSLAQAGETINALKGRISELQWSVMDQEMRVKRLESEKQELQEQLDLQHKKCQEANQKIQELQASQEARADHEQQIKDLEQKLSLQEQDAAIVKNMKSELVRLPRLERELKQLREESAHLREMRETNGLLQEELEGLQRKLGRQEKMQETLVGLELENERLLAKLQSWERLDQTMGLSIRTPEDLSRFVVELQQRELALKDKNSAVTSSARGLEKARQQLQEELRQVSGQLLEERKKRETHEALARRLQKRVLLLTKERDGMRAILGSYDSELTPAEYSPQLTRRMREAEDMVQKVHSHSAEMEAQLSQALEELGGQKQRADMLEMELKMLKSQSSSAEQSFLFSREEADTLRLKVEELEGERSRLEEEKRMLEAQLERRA

[5] = target: T5, Flag-Mad1 (351–530 amino acids) (human) (UniProt Q9Y6D9); test: as above
T5 sequence: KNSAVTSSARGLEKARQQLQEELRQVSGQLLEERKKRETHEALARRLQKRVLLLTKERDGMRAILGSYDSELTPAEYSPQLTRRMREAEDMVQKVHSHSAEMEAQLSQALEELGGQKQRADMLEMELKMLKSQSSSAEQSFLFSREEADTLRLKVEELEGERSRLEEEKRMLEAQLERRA

[6] = target: T6, Cep57, yeast two-hybrid fusion (human) (UniProt Q86XR8); test: two-hybrid; Matchmaker system; bait vector pGBKT7 and prey vector pGADT7 co-transformed into AH109 yeast; growth on quadruple-selective medium (Trp-, Leu-, His-, Ade-), 2-5 days at 30 °C
T6 sequence: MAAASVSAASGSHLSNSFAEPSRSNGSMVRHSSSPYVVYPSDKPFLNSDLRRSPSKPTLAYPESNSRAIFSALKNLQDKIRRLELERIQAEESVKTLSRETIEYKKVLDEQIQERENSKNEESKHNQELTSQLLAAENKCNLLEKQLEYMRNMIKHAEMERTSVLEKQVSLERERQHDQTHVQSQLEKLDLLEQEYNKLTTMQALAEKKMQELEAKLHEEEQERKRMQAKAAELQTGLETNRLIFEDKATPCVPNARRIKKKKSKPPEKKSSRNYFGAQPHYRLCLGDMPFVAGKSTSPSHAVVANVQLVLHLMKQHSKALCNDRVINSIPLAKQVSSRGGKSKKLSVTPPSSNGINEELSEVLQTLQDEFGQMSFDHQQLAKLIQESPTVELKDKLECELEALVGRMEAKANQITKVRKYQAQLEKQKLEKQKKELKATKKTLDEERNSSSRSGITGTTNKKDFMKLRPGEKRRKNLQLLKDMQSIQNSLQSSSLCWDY

[7] = target: T7, Cep57 (endogenous) (human (endogenous in HeLa)) (UniProt Q86XR8); test: co-IP; endogenous proteins; mitotic HeLa cells arrested by nocodazole; IP with anti-Cep57 antibody, IgG as negative control
T7 sequence: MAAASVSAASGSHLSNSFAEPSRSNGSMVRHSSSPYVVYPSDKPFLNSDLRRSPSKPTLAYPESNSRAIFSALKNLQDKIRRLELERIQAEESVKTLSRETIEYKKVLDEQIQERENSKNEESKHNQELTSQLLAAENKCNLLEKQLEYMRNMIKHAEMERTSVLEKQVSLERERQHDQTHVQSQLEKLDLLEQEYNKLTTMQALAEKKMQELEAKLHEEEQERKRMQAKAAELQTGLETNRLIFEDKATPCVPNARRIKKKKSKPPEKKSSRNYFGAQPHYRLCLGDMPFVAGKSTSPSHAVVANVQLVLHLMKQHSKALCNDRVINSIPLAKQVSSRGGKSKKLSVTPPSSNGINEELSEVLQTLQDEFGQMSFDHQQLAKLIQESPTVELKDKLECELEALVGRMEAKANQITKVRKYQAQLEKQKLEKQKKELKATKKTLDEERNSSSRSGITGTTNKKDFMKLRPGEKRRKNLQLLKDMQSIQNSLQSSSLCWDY

B1: Mad1-GFP (protein, UniProt Q9Y6D9 1-718)
chain: MEDLGENTMVLSTLRSLNNFISQRVEGGSGLDISTSAPGSLQMQYQQSMQLEERAEQIRSKSHLIQVEREKMQMELSHKRARVELERAASTSARNYEREVDRNQELLTRIRQLQEREAGAEEKMQEQLERNRQCQQNLDAASKRLREKEDSLAQAGETINALKGRISELQWSVMDQEMRVKRLESEKQELQEQLDLQHKKCQEANQKIQELQASQEARADHEQQIKDLEQKLSLQEQDAAIVKNMKSELVRLPRLERELKQLREESAHLREMRETNGLLQEELEGLQRKLGRQEKMQETLVGLELENERLLAKLQSWERLDQTMGLSIRTPEDLSRFVVELQQRELALKDKNSAVTSSARGLEKARQQLQEELRQVSGQLLEERKKRETHEALARRLQKRVLLLTKERDGMRAILGSYDSELTPAEYSPQLTRRMREAEDMVQKVHSHSAEMEAQLSQALEELGGQKQRADMLEMELKMLKSQSSSAEQSFLFSREEADTLRLKVEELEGERSRLEEEKRMLEAQLERRALQGDYDQSRTKVLHMSLNPTSVARQRLREDHSQLQAECERLRGLLRAMERGGTVPADLEAAAASLPSSKEVAELKKQVESAELKNQRLKEVFQTKIQEFRKACYTLTGYQIDITTENQYRLTSLYAEHPGDCLIFKATSPSGSKMQLLETEFSHTVGELIEVHLRRQDSIPAFLSSLTLELFSRQTVA
In the case of B1, the binding [1] is reported as “binds”.

B2: GFP-Cep57 (protein, UniProt Q86XR8 1-500)
chain: MAAASVSAASGSHLSNSFAEPSRSNGSMVRHSSSPYVVYPSDKPFLNSDLRRSPSKPTLAYPESNSRAIFSALKNLQDKIRRLELERIQAEESVKTLSRETIEYKKVLDEQIQERENSKNEESKHNQELTSQLLAAENKCNLLEKQLEYMRNMIKHAEMERTSVLEKQVSLERERQHDQTHVQSQLEKLDLLEQEYNKLTTMQALAEKKMQELEAKLHEEEQERKRMQAKAAELQTGLETNRLIFEDKATPCVPNARRIKKKKSKPPEKKSSRNYFGAQPHYRLCLGDMPFVAGKSTSPSHAVVANVQLVLHLMKQHSKALCNDRVINSIPLAKQVSSRGGKSKKLSVTPPSSNGINEELSEVLQTLQDEFGQMSFDHQQLAKLIQESPTVELKDKLECELEALVGRMEAKANQITKVRKYQAQLEKQKLEKQKKELKATKKTLDEERNSSSRSGITGTTNKKDFMKLRPGEKRRKNLQLLKDMQSIQNSLQSSSLCWDY
B2 was tested, and the binding [2] was “binds weakly”, the binding [3] was “binds weakly” and the binding [4] was “binds”. For the same binder, the binding [5] was “binds weakly”.

B3: Mad1, yeast two-hybrid fusion (protein, UniProt Q9Y6D9 1-718)
chain: MEDLGENTMVLSTLRSLNNFISQRVEGGSGLDISTSAPGSLQMQYQQSMQLEERAEQIRSKSHLIQVEREKMQMELSHKRARVELERAASTSARNYEREVDRNQELLTRIRQLQEREAGAEEKMQEQLERNRQCQQNLDAASKRLREKEDSLAQAGETINALKGRISELQWSVMDQEMRVKRLESEKQELQEQLDLQHKKCQEANQKIQELQASQEARADHEQQIKDLEQKLSLQEQDAAIVKNMKSELVRLPRLERELKQLREESAHLREMRETNGLLQEELEGLQRKLGRQEKMQETLVGLELENERLLAKLQSWERLDQTMGLSIRTPEDLSRFVVELQQRELALKDKNSAVTSSARGLEKARQQLQEELRQVSGQLLEERKKRETHEALARRLQKRVLLLTKERDGMRAILGSYDSELTPAEYSPQLTRRMREAEDMVQKVHSHSAEMEAQLSQALEELGGQKQRADMLEMELKMLKSQSSSAEQSFLFSREEADTLRLKVEELEGERSRLEEEKRMLEAQLERRALQGDYDQSRTKVLHMSLNPTSVARQRLREDHSQLQAECERLRGLLRAMERGGTVPADLEAAAASLPSSKEVAELKKQVESAELKNQRLKEVFQTKIQEFRKACYTLTGYQIDITTENQYRLTSLYAEHPGDCLIFKATSPSGSKMQLLETEFSHTVGELIEVHLRRQDSIPAFLSSLTLELFSRQTVA
In the case of B3, the binding [6] is reported as “binds”.

B4: Mad1 (endogenous) (protein, UniProt Q9Y6D9 1-718)
chain: MEDLGENTMVLSTLRSLNNFISQRVEGGSGLDISTSAPGSLQMQYQQSMQLEERAEQIRSKSHLIQVEREKMQMELSHKRARVELERAASTSARNYEREVDRNQELLTRIRQLQEREAGAEEKMQEQLERNRQCQQNLDAASKRLREKEDSLAQAGETINALKGRISELQWSVMDQEMRVKRLESEKQELQEQLDLQHKKCQEANQKIQELQASQEARADHEQQIKDLEQKLSLQEQDAAIVKNMKSELVRLPRLERELKQLREESAHLREMRETNGLLQEELEGLQRKLGRQEKMQETLVGLELENERLLAKLQSWERLDQTMGLSIRTPEDLSRFVVELQQRELALKDKNSAVTSSARGLEKARQQLQEELRQVSGQLLEERKKRETHEALARRLQKRVLLLTKERDGMRAILGSYDSELTPAEYSPQLTRRMREAEDMVQKVHSHSAEMEAQLSQALEELGGQKQRADMLEMELKMLKSQSSSAEQSFLFSREEADTLRLKVEELEGERSRLEEEKRMLEAQLERRALQGDYDQSRTKVLHMSLNPTSVARQRLREDHSQLQAECERLRGLLRAMERGGTVPADLEAAAASLPSSKEVAELKKQVESAELKNQRLKEVFQTKIQEFRKACYTLTGYQIDITTENQYRLTSLYAEHPGDCLIFKATSPSGSKMQLLETEFSHTVGELIEVHLRRQDSIPAFLSSLTLELFSRQTVA
For B4, the binding [7] was “binds”.

— PMC4729865
